Measured values reported in PubChem BioAssay AID1345082 (National Center for Advancing Translational Sciences (NCATS), 2018).
Screen size: about 94,000 compounds; about 4,000 (4.3%) were called active. Inconclusive results, whose numbers are uncertain, are shown with a selection of clear calls. Calls follow the shape of the dose curve; as a rule, active = well fitted inhibition curve with a large enough effect; inconclusive = small, poorly fitted or top-dose-only effect; inactive = no such curve, though single readings can be large or run the other way. Potencies beside an inconclusive call are fits to weak or partial responses and may not hold up.

Test: Cytotoxic Profiling in NIH 3T3 Cell Line of Diverse Libraries Using Quantitative High-Throughput Screening; also: nearly all actives have a fitted effect of over 55% in size
Details: NIH 3T3 viability, CellTiter-Glo ATP luminescence, 48-72 h; activity change, negative = cytotoxicity: at 96.7 µM (top of the series) unless noted; series mostly up to 96.7 µM
Summary of the method: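 ATP-dependent luminescence (CellTiter-Glo) served as the viability signal for NIH 3T3 cells treated with compound for 48 or 72 hr at 37 °C.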
% is scaled to controls: 0 for no effect and ±100 for the full control effect; potency is read from the fitted curve at half-maximal effect; tags tell the direction and shape of the fitted curve.

SMILES	Potency	activity change, negative = cytotoxicity	outcome
O=C(NCCc1noc(C2CC2)n1)Nc1ccc(C(F)(F)F)cc1	inconclusive: 44.7 µM [inhibitor, partial curve, poor fit]	–	–
Cn1nccc1C(=O)N1CCC(Nc2cccnc2)C1 (stereo not drawn)	–	inactive: 0.572%	–
Cc1ccc(CC(=O)NC2CCN(c3cc(-c4ccccc4)[nH]n3)C2)cc1 (stereo not drawn)	inconclusive: 25.1 µM [inhibitor, full curve]	–	–
CC(C)(C)NC(=O)N1CCC2(CC1)CC(Cc1cccc(F)c1)CCO2 (stereo not drawn)	inconclusive: 50.1 µM [inhibitor, partial curve, poor fit]	–	–
COc1ccc(N2CCN(C3CCCN(CC=C(C)C)C3)CC2)cc1 (stereo not drawn)	–	inactive: -15.5%	–
COCC(=O)N1CC2(CCCCC2)CC1COc1ccc(OC)cc1 (stereo not drawn)	inconclusive: 50.1 µM [inhibitor, partial curve, poor fit]	–	–
C[S+](=O)([O-])c1ccc(OCC2CN(Cc3ccccc3)C(=O)c3c(ccnc3-c3ccc(OCC(=O)O)cc3)O2)cc1 (stereo not drawn)	inconclusive: 50.1 µM [inhibitor, partial curve, poor fit]	–	–
Cc1nc(C)c(C)c(N2CCC(Oc3ccc4ccccc4c3)(C(=O)O)CC2)n1	–	inactive: 0.419%	–
O=C1CC(c2ccccc2)N(C(=O)CNC(=O)c2cccs2)CCCCCCN1 (stereo not drawn)	–	–	inactive
O=C(NC1CCN(c2cc(-c3ccc(F)cc3)[nH]n2)CC1)c1ccc(F)c(Cl)c1	active: 31.6 µM	–	–
COc1ncccc1-c1cnc2n[nH]c(-c3ccccc3)c2n1	active: 50.1 µM	–	–
O=C(Cc1ccc(N(Cc2ccc(F)cc2)C(=O)c2ccco2)cc1)Nc1ccc(F)cc1	active: 31.6 µM	–	–
O=c1n(-c2ccncc2)nc2n1CCN(Cc1ccsc1)C2	inconclusive: 56.2 µM [inhibitor, partial curve, poor fit]	–	–
CCCC(C)N1CC2(CCN(Cc3nnc(-c4ccccc4)o3)CC2)OC1=O (stereo not drawn)	inconclusive: 56.2 µM [inhibitor, partial curve, poor fit]	–	–
Cc1ccncc1C(=O)NCC(=O)N1CCCCCNC(=O)CC1c1ccccc1 (stereo not drawn)	–	inactive: 2.08%	–
CCOc1ccccc1C1NC(=O)N(CC(=O)Nc2ccc(C)c(F)c2)C2=C1C(=O)OC2 (stereo not drawn)	inconclusive: 3.16 µM [inhibitor, full curve, poor fit]	–	–
COc1cccc(CC(=O)N2CCOc3ccc(CN4CCc5ccccc5C4)cc3C2)c1	inconclusive: 44.7 µM [inhibitor, partial curve, poor fit]	–	–
CCC(=O)N1CCN(c2nc3c(s2)CC(C(=O)NCc2cccc(OC)c2)CC3)CC1 (stereo not drawn)	inconclusive: 44.7 µM [inhibitor, partial curve]	–	–
COc1ccc2nc(C[C@@H]3C[C@@H](C(C)C)[C@H](CNCc4ccccc4)C=C3C)[nH]c2c1	active: 50.1 µM	–	–
CN1CCC(NC(=O)C2(C)CCc3cnc(Nc4ccccc4)nc32)CC1 (stereo not drawn)	inconclusive: 89.1 µM [inhibitor, partial curve, poor fit]	–	–
COc1cccc(CNC(=O)N2c3ccccc3CC2c2nc(C3CC3)no2)c1 (stereo not drawn)	inconclusive: 39.8 µM [inhibitor, partial curve, poor fit]	–	–

SMILES	Potency	activity change, negative = cytotoxicity	outcome
CN1CC(=O)N(C2CNC2)Cc2c(NC3CCCC3)ncnc21	inconclusive: 89.1 µM [inhibitor, single point]	–	–
Cn1cccc1CN1CCCC2(C1)C(=NC1CCCC1)NC(=O)N2c1cccnc1 (stereo not drawn)	inconclusive: 44.7 µM [inhibitor, partial curve, poor fit]	–	–
Cc1oc(-c2cccs2)nc1CN1CCCC(c2ccn[nH]2)C1 (stereo not drawn)	inconclusive: 79.4 µM [inhibitor, partial curve, poor fit]	–	–
COc1ncc(-c2nccc3c(=O)cc(N4CCN(C)CC4)oc23)cn1	active: 89.1 µM	–	–
CCN1CC(c2nc(-c3ccc(-n4nc(C)cc4N)cc3)no2)CCC1=O (stereo not drawn)	inconclusive: 50.1 µM [inhibitor, partial curve, poor fit]	–	–
Cc1ncsc1CN(Cc1ccccc1)C(=O)c1cn(CCC2CCCCC2)nn1	inconclusive: 63.1 µM [inhibitor, partial curve, poor fit]	–	–
COc1ccc(NC(=O)[C@@H]2C[C@@H](c3ccc(F)cc3)N([S+](=O)([O-])c3cccnc3)C2)c(C)c1	inconclusive: 70.8 µM [inhibitor, partial curve, poor fit]	–	–
O=C(c1ccc(F)cc1)N1CCC2(CC1)CC(c1cccc(C(F)(F)F)c1)=NO2	inconclusive: 35.5 µM [inhibitor, partial curve]	–	–
CCNC(=O)N(C1CC1)C1CCOC2(CCN(C(=O)NCc3ccc(OC)cc3)CC2)C1 (stereo not drawn)	–	inactive: -8.47%	–
COCc1ccc2c(c1)c(OC(C)(C)C(=O)NCCN1CCOCC1)nn2CCC(C)C	inconclusive: 15.8 µM [inhibitor, full curve, poor fit]	–	–
CN1C[C@@H](NC(=O)Nc2ccccc2)C[C@H]1c1nc(Cc2ccccc2)no1	inconclusive: 79.4 µM [inhibitor, partial curve, poor fit]	–	–
COC1CCN(CC2CCCCCN2C(=O)NC2CCCC2)CC1 (stereo not drawn)	–	inactive: -18.7%	–
Cc1cccc(-c2nc3ccc(C(=O)NCC(C)C)cc3o2)n1	inconclusive: 89.1 µM [inhibitor, partial curve, poor fit]	–	–
CC(C)NS(=O)(=O)c1ccc2c(c1)nc(-c1cc(C(C)(C)C)[nH]n1)n2C(C)C	inconclusive: 50.1 µM [inhibitor, partial curve, poor fit]	–	–
CCc1nc2c(c(-c3ccc(Cl)cc3)n1)CN(Cc1ccc(F)cc1)CC2	active: 22.4 µM	–	–
COCc1cc(N2CCC(c3cccc(OC)c3OC)C2)ncn1 (stereo not drawn)	inconclusive: 22.4 µM [inhibitor, full curve]	–	–
COC(=O)CNC(=O)C1CCCN(Cc2cccc(-c3cccc(C)c3)c2)C1 (stereo not drawn)	inconclusive: 50.1 µM [inhibitor, partial curve, poor fit]	–	–
Cc1cccc(C(=O)N2C(C(=O)N3CCOCC3)COC23CCN(C(=O)c2cccc(F)c2)CC3)c1 (stereo not drawn)	inconclusive: 50.1 µM [inhibitor, partial curve, poor fit]	–	–
COc1ccc(C2=NOC3(CCN([S+](=O)([O-])c4cccs4)C3)C2)cc1 (stereo not drawn)	inconclusive: 50.1 µM [inhibitor, partial curve, poor fit]	–	–
O=c1ncn(CC2CC2)c2ccc(-c3ccc(Cl)cc3)nc12	inconclusive: 100 µM [inhibitor, partial curve, poor fit]	–	–
COc1ccc(-c2noc(-c3cccn3CC(=O)N3CCN(c4ccccc4OC)CC3)n2)cc1F	inconclusive: 11.2 µM [inhibitor, full curve, poor fit]	–	–

SMILES	Potency	activity change, negative = cytotoxicity	outcome
Cc1ccccc1C(=O)N1CCC(N2C(=O)c3c(c(C)nn3-c3ccccc3)C2C(C)C)CC1 (stereo not drawn)	inconclusive: 44.7 µM [inhibitor, partial curve, poor fit]	–	–
O=C(c1ccn[nH]1)N1CC(c2ncc3c(-c4cccc(C(F)(F)F)c4)nccn23)C1	inconclusive: 100 µM [inhibitor, single point]	–	–
O=C(NC1CCN(c2cc(-c3ccc(Cl)cc3)[nH]n2)C1)c1ccccc1Br (stereo not drawn)	active: 35.5 µM	–	–
O=C(NCC1(O)CCCCC1)c1ccc2nc(Cc3ccccc3F)oc2c1	inconclusive: 11.2 µM [inhibitor, full curve, poor fit]	–	–
Cc1cc(C)cc(-c2ccc(CN3CCCC3C(=O)NCC(F)F)cc2)c1 (stereo not drawn)	inconclusive: 44.7 µM [inhibitor, partial curve, poor fit]	–	–
O=[S+]1([O-])NC2(CCCN(Cc3ccccc3)C2)CNc2ccccc21 (stereo not drawn)	–	inactive: -20.8%	–
COCCN[C@H]1[C@@H]2OC[C@@H](O2)[C@@H](NCc2ccc(-c3ccccc3)cc2)[C@@H]1O	inconclusive: 100 µM [inhibitor, partial curve]	–	–
CCOCC1(C)COc2ccc(C(=O)NCCc3ccccc3)cc2N1 (stereo not drawn)	inconclusive: 112 µM [inhibitor, partial curve, poor fit]	–	–
Cn1ccnc1CNC(=O)C[C@@H]1C[C@H]2O[C@H](CNCc3ccccc3OC(F)(F)F)[C@@H](O)[C@H]2O1	–	inactive: -0.905%	–
CN1CC(=O)N(c2ccccc2F)Cc2c(NC3CCOCC3)ncnc21	–	inactive: -17.6%	–
O=C(NCc1ccccc1)c1ccc2oc(-c3ccnc(Cl)c3)nc2c1	–	inactive: -23.2%	–
O=C(c1ccccn1)N1CCCC(c2noc(COc3ccccc3)n2)C1 (stereo not drawn)	–	inactive: -10.4%	–
O=C(c1cccc(Cl)c1)N1CCCC2(C1)NC(=O)N(Cc1ccccc1)C2=O (stereo not drawn)	inconclusive: 70.8 µM [inhibitor, single point]	–	–
O=C(Nc1ccccc1F)N1CC(Oc2ccccc2-c2nc(-c3cnccn3)no2)C1	inconclusive: 50.1 µM [inhibitor, partial curve, poor fit]	–	–
COC[C@@H]1CN(C(=O)Cc2ccc(OC)cc2)C[C@H]1c1nc(C)no1	–	inactive: -4.85%	–
CS(=O)(=O)N1C[C@@H]2OCC(=O)N(Cc3ccccc3)[C@@H]2C1	–	inactive: -6.25% [at 138 µM]	–
CS(=O)(=O)c1ccc(CN2CCOC[C@H]2c2ncc(-c3ccc(C(F)(F)F)cc3)[nH]2)cc1	inconclusive: 89.1 µM [inhibitor, single point]	–	–
Cn1ncc2c(C(=O)NC3CCCC3)cc(-c3cccc(F)c3)nc21	inconclusive: 44.7 µM [inhibitor, partial curve, poor fit]	–	–
COc1ccc(C(=O)NCCNC(=O)c2ccc(-c3cncnc3)cc2)cc1	–	inactive: -13.5%	–
CCc1nc(-c2c3n(c(=O)n(Cc4c(F)cccc4Cl)c2=O)CCCC3)no1	inconclusive: 70.8 µM [inhibitor, single point]	–	–
COc1ccccc1C(=O)N1CC(Oc2ccc(F)cc2C)C1	inconclusive: 56.2 µM [inhibitor, partial curve, poor fit]	–	–
